The supplement of paper PMC5919970
Structures can show the parent of a compound that is named as a salt. The full ranking holds about 2,000 compounds; the median of “fractional viability relative to vehicle” is about 0.92, and the lowest 2% start at about 0.11. This is one part of the list.

Tested on: TYKNU
Test: fractional viability relative to vehicle; TYKNU is a high-grade serous ovarian cancer line; higher = less growth inhibition
Conditions: 72 h, genotype: OPA1 knockout (sgOPA1 #2)
How it was run: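 Drug treatment lasted 72 h, with cells grown at 37 °C in 5% CO2 in RPMI 1640 supplemented with 10% FBS. Beforehand, TYKNU control cells or their lentiCRISPRv2 knockout derivatives had been seeded at 500 cells per well into drug-stamped 384-well plates carrying a ~2100-compound library at 2 or 10 μM, in duplicate. Viability came from Cell Titer Glo luminescence, with averaged duplicate treatment wells normalised to duplicate control wells in the same plate position.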

SMILES | fractional viability (2uM) | fractional viability (10uM)
O=C(O[C@H]1C[C@H]2CC[C@@H](C1)[N+]21CCCC1)C(O)(c1ccccc1)c1ccccc1 [Trospium chloride] | 1.05 | 1.02
CC[C@@H](C(N)=O)N1CCCC1=O [Levetiracetam] | 1.22 | 1.13
O=C(O)CCCc1ccc(N(CCCl)CCCl)cc1 [Chloroambucil] | 1.06 | 0.726
CN(C)Cc1c[nH]c2ccccc12 [Gramine] | 0.94 | 0.991
NC(=O)CN1CC(O)CC1=O (stereo not drawn) [Oxiracetam] | 0.878 | 0.945
CN1CCC(c2c[nH]c3ccc(O)cc23)CC1 | 0.838 | 0.922
C1=C2CCCN[C@H]2[C@@H]2C[C@H]1[C@H]1CCCCN1C2 [Aloperine] | 1.02 | 0.89
COc1cc([C@@H]2c3cc4c(cc3[C@H](O)[C@H]3COC(=O)[C@@H]23)OCO4)cc(OC)c1OC [Picropodophyllin (PPP)] | 0.431 | 0.348
O=C(O)CNC(=O)c1c(O)c2ccccc2n(Cc2ccccc2)c1=O | 1.18 | 0.799
C[N+](C)(C)CCCCCCCCCC[N+](C)(C)C [Decamethonium Bromide] | 0.926 | 0.935
CCNC(=O)C[C@@H]1N=C(c2ccc(Cl)cc2)c2cc(OC)ccc2-n2c(C)nnc21 | 0.715 | 0.794
CC(C)=CCC[C@]1(C)C=Cc2c(O)c3c(c(CC=C(C)C)c2O1)O[C@]12C(=C[C@@H]4C[C@H]1C(C)(C)O[C@@]2(C/C=C(/C)C(=O)O)C4=O)C3=O [Gambogic Acid] | 0.0971 | 0.0282
CN1c2ccccc2C(NCCCCCCC(=O)O)c2ccc(Cl)cc2S1(=O)=O (stereo not drawn) [Tianeptine sodium] | 1.15 | 1.02
CC[C@@]1(O)C(=O)OCc2c1cc1n(c2=O)Cc2cc3ccccc3nc2-1 [Camptothecin] | 0.261 | 0.141
C[C@H]1CCC/C=C/[C@@H]2C[C@H](O)C[C@H]2[C@H](O)/C=C/C(=O)O1 [Brefeldin A] | 0.269 | 0.277
CC1=C(O)C(=O)C=C2C1=CC=C1[C@@]2(C)CC[C@@]2(C)[C@@H]3C[C@](C)(C(=O)O)CC[C@]3(C)CC[C@]12C [Celastrol] | 0.123 | 0.0841
COc1cc(-n2c(=S)[nH]c3ccccc3c2=O)c(Cl)cc1Cl [Mdivi-1] | 0.891 | 0.759
CC(=O)Nc1ccc(Cc2ccc(NC(C)=O)cc2)cc1 | 0.777 | 0.739
CCCN1C[C@H](CSC)C[C@@H]2c3cccc4[nH]cc(c34)C[C@H]21 [Pergolide mesylate] | 0.978 | 0.96
C[C@]12N[C@H](Cc3ccccc31)c1ccccc12 [MK-801 (Dizocilpine)] | 1.04 | 0.956
C[C@](O)(COc1ccc(C#N)cc1)C(=O)Nc1ccc(C#N)c(C(F)(F)F)c1 | 0.943 | 0.869
CC(=O)Nc1ccc(OC[C@](C)(O)C(=O)Nc2ccc([N+](=O)[O-])c(C(F)(F)F)c2)cc1 [Andarine] | 1.18 | 1.18
COC(=O)C1=CCCN(C)C1 [Arecoline] | 1.04 | 0.781
CNCC(=O)c1ccc(O)c(O)c1 [Adrenalone HCl] | 1.06 | 0.78
CC(C)N(CCNC(=O)CN1CCCC1=O)C(C)C [Pramiracetam] | 1.15 | 0.839
C[C@]12CC[C@H]3[C@@H](CC[C@@]45O[C@@H]4C(O)=C(C#N)C[C@]35C)[C@@H]1CC[C@@H]2O [Trilostane] | 1.02 | 1.14
C[C@@H]1O[C@@H](O[C@H]2C[C@@H](O)[C@]3(CO)[C@H]4[C@H](O)C[C@]5(C)[C@@H](C6=CC(=O)OC6)CC[C@]5(O)[C@@H]4CC[C@]3(O)C2)[C@H](O)[C@H](O)[C@H]1O [Ouabain] | 0.136 | 0.126

SMILES | fractional viability (2uM) | fractional viability (10uM)
NCC(O)c1ccc(O)cc1 (racemic) [(+,-)-Octopamine HCl] | 0.98 | 1.01
C[C@]12CC[C@H](O)C[C@@H]1CC[C@@H]1[C@@H]2CC[C@]2(C)C(=O)CC[C@@H]12 [Epiandrosterone] | 1.08 | 0.914
C[N+]1(C)[C@@H]2C[C@@H](OC(=O)[C@H](CO)c3ccccc3)C[C@H]1[C@@H]1O[C@@H]12 [Methscopolamine] | 0.982 | 0.966
CN(C)C(=O)Oc1cc(OC(=O)N(C)C)cc(C(O)CNC(C)(C)C)c1 (stereo not drawn) [Bambuterol HCl] | 0.928 | 1
CCN(C)C(=O)Oc1cccc([C@H](C)N(C)C)c1 [Rivastigmine Tartrate] | 0.932 | 1.07
CCC1(c2ccc(N)cc2)CCC(=O)NC1=O (stereo not drawn) [Aminoglutethimide] | 1.04 | 1.04
NC(=O)CN1CCCC1=O [Piracetam] | 1.13 | 0.943
O=P1(NCCCl)OCCCN1CCCl (stereo not drawn) [Ifosfamide] | 1.31 | 1.05
O=C1CCC[C@@H]2[C@H]3CCCN4CCC[C@@H](CN12)[C@@H]34 [(+)-Matrine] | 0.865 | 0.808
Cc1cccc(C)c1NC1=NCCCS1 [Xylazine HCl] | 0.823 | 0.79
O=C(Oc1ccc([N+](=O)[O-])cc1)N1CCC(C(O)(c2ccc3c(c2)OCO3)c2ccc3c(c2)OCO3)CC1 | 0.994 | 0.739
CC[C@@H]1/C=C/C=C/C[C@H](C)[C@H](O)[C@](C)(O)C(=O)[C@H](C)[C@@H](O)[C@H](C)C(=O)[C@H](C)[C@@H](O)[C@H](C)/C=C/C(=O)O[C@H]2[C@@H](C)[C@@H](CC1)O[C@@]1(CC[C@@H](C)[C@@H](C[C@H](C)O)O1)[C@@H]2C [Oligomycin A] | 1.01 | 0.871
CC(C)(C)[C@]1(O)CC2OC(=O)CC23C(=O)OC2OC(=O)[C@H](O)C231 (stereo partly drawn) [Bilobalide] | 0.909 | 0.944
Cc1cc(SCc2sc(-c3ccc(C(F)(F)F)c(F)c3)nc2C)ccc1OCC(=O)O | 0.824 | 0.75
O=C(O[C@H]1C[N+]2(CCCOc3ccccc3)CCC1CC2)C(O)(c1cccs1)c1cccs1 [Aclidinium Bromide] | 0.952 | 0.927
CN[C@@H]1C[C@H]2O[C@@](C)([C@@H]1OC)n1c3ccccc3c3c4c(c5c6ccccc6n2c5c31)C(=O)NC4 [Staurosporine] | 0.264 | 0.0922
C/C=C(\C)C(=O)N[C@@H](c1ccccc1)[C@@H](O)C(=O)O[C@H]1C[C@@]2(O)[C@@H](OC(=O)c3ccccc3)[C@@H]3[C@]4(OC(C)=O)CO[C@@H]4C[C@H](O)[C@@]3(C)C(=O)[C@H](OC(C)=O)C(=C1C)C2(C)C [Cephalomannine] | 0.467 | 0.448
CCC(COC(=O)c1cc(OC)c(OC)c(OC)c1)(c1ccccc1)N(C)C (stereo not drawn) [Trimebutine] | 1.11 | 0.97
NCCc1c[nH]c2ccc(O)cc12 [Serotonin HCl] | 1.02 | 1.02
COc1ccc(C[C@H]2NC[C@H](O)[C@H]2OC(C)=O)cc1 [Anisomycin] | 0.177 | 0.217
COc1ccc2c(c1)/C(=C/c1cnc[nH]1)C(=O)N2 | 0.897 | 0.708
C[C@@H]1CC[C@H]2[C@@H](C)C(=O)O[C@@H]3O[C@@]4(C)CC[C@@H]1[C@]32OO4 [Artemisinin] | 0.982 | 0.733
Cc1c(Cl)c(OCC(=O)N2CCN(C)CC2)nc2sc(C(=O)NC3CC3)c(N)c12 | 0.773 | 0.819
Cc1cccc([C@H](C)c2c[nH]cn2)c1C [Dexmedetomidine] | 0.951 | 0.832
C#C[C@]1(O)C=C[C@H]2[C@@H]3CCC4=CC(=O)CC[C@@H]4[C@H]3CC[C@@]21CC [Gestodene] | 0.925 | 1.03
NCC(=O)O.[C-]#[O+].[C-]#[O+].[C-]#[O+].[Cl][Ru] | 0.949 | 0.728
C[C@@]12N[C@@H](Cc3ccccc31)c1ccccc12 [(-)-MK 801 Maleate] | 0.906 | 0.846
